Measured values published in paper PMC4336329 (PLoS ONE, 2015).
In all, about 310,000 compounds went through this assay and about 14,000 (4.5%) showed an effect of 50% or more. Effects have a minus sign here. Some of the results follow.

Target: human ether-à-go-go-related gene (hERG) potassium channel (human, UniProt Q12809)
Test: primary screen, population patch clamp on CHO cells stably expressing hERG
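Note: peak tail current of the secondary pulse compared with the same well before compound.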

human ether-à-go-go-related gene (hERG) potassium channel, sequence (Q12809 whole entry, looked up): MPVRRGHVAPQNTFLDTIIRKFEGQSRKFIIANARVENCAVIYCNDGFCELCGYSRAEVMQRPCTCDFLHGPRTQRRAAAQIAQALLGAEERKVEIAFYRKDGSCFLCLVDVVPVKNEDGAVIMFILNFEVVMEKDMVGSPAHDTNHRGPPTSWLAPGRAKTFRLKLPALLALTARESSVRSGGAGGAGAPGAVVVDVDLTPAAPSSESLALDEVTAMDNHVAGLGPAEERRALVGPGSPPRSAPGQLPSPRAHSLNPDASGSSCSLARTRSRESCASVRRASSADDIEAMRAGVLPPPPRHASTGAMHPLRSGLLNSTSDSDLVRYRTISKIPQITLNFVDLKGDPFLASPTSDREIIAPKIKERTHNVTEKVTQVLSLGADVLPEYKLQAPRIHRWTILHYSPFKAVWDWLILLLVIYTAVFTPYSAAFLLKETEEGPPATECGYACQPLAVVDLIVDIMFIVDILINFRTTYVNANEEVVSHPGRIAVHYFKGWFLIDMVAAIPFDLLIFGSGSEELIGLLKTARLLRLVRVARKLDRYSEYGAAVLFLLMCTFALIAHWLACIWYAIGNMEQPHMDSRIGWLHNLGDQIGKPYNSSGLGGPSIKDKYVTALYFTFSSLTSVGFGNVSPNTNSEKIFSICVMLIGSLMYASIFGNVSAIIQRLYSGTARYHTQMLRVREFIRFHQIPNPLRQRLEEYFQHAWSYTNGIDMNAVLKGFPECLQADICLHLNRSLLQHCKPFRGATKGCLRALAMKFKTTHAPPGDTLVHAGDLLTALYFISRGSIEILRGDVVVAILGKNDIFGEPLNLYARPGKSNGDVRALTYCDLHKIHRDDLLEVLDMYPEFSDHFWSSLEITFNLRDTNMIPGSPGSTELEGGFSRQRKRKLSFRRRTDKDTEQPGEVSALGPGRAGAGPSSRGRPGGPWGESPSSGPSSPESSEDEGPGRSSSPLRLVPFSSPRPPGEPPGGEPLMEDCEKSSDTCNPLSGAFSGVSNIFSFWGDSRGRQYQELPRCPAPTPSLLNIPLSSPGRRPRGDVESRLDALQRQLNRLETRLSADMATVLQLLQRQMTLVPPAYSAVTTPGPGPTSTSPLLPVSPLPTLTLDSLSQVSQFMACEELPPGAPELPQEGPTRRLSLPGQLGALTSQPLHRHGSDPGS

Compared with `C/C(=N\NC(=O)c1ccccc1O)c1ccc(NC(=O)c2ccccc2)cc1`, `CCOCCCNS(=O)(=O)c1ccc(NC(=O)c2ccccc2)cc1` is lower in “hERG current change (%, negative = inhibition) at 10uM” value: 15.3% for the first, 9.96% for the second.

Going from `CN(C)c1nc(Oc2ccc(OCCOc3ccccc3)nn2)nc(N(C)C)n1` to `COc1cccc(NC(=O)CCCOc2cc(=O)n(C)c3ccccc23)c1`, the “hERG current change (%, negative = inhibition) at 10uM” value rises from -5.51% to 12.6%.

Compared with `COC(=O)c1oc2ccc(OC)cc2c1N`, `CC(=O)C1=C(O)C=C(c2ccco2)CC1c1ccco1` (stereo not shown) is lower in “hERG current change (%, negative = inhibition) at 10uM” value: 5.36% for the first, -0.921% for the second.

Going from `CCOc1ccc(NS(=O)(=O)c2ccc(C(=O)N3CCCC(C)C3)cc2)cc1` (stereo not shown) to `O=C(COc1ccc(S(=O)(=O)N2CCOCC2)cc1)NCc1ccccc1`, the “hERG current change (%, negative = inhibition) at 10uM” value rises from -2.67% to 4.69%.

Compared with `S=C(NCCC(c1ccccc1)c1ccccc1)Nc1ccccc1Cl`, `O=C1N(c2ccccc2C(F)(F)F)OC1(Cc1ccccc1)c1ccccc1` (stereo not shown) is higher in “hERG current change (%, negative = inhibition) at 10uM” value: 11% for the first, 21.6% for the second.

Compared with `CN(CCC(=O)c1ccccc1)CCC(=O)c1ccccc1`, `O=C(NCCCN1CCOCC1)c1cccc(NC(=O)c2ccccc2)c1` is higher in “hERG current change (%, negative = inhibition) at 10uM” value: -18% for the first, 8.41% for the second.

Compared with `NC(=O)c1cc(C(N)=O)nc(Cl)n1`, `O=C(COC(=O)c1ccccc1O)Nc1cccnc1Cl` is lower in “hERG current change (%, negative = inhibition) at 10uM” value: 16.1% for the first, 8.55% for the second.

First: CCN(CCn1cccn1)C(=O)CC1C(=O)NCCN1Cc1cc(OC)cc(OC)c1 (stereo not shown)
Second: COc1ccc(-n2nnnc2SCC(=O)N2CCCc3ccccc32)cc1OC
The “hERG current change (%, negative = inhibition) at 10uM” value of the first is higher: 20.7% for the first, -13.4% for the second.

First: CN1CCN(c2ccc([N+](=O)[O-])c(N)c2)CC1
Second: CCc1c(C)nc(SCC(=O)N2CCN(c3ccccc3)CC2)[nH]c1=O
The “hERG current change (%, negative = inhibition) at 10uM” value of the first is lower: -26.7% for the first, -6.86% for the second.

Going from `COC(=O)c1cc(S(=O)(=O)N2CCCCC2)c[nH]1` to `O=C(Nc1ccccc1C(=O)N1CCCCC1)c1ccco1`, the “hERG current change (%, negative = inhibition) at 10uM” value rises from 5.57% to 18.8%.

First: Cc1ccc(Nc2c(-c3ccc(C)o3)nc3ncccn23)cc1
Second: Cc1ccc(-c2nc(N)n(C(=O)Cc3ccccc3)n2)cc1
The “hERG current change (%, negative = inhibition) at 10uM” value of the first is lower: -15.5% for the first, 29% for the second.

First: O=c1nc(SCc2ccccc2Cl)nc(-c2ccc(Cl)cc2)[nH]1
Second: CCOC(=O)Cn1nc(-c2ccc(Cl)cc2)ccc1=O
The “hERG current change (%, negative = inhibition) at 10uM” value of the first is higher: 25.2% for the first, -18.9% for the second.

First: CC(=O)c1ccc(S(=O)(=O)N2CCN(C(=O)c3ccc(-n4nc(C)c(Cl)c4C)cc3)CC2)cc1
Second: Cc1noc(C)c1COc1ccc(C(=O)N2CCN(c3ccccn3)CC2)cc1
The “hERG current change (%, negative = inhibition) at 10uM” value of the first is higher: -29.2% for the first, -31.8% for the second.

Compared with `COc1ccc(C2=NCC(=S)Nc3ccc(Cl)cc32)cc1OC`, `COc1cc(CNn2cn[nH]c2=S)cc(Br)c1OCc1ccccc1F` is higher in “hERG current change (%, negative = inhibition) at 10uM” value: -0.628% for the first, 6.75% for the second.

Going from `O=C(C1CCC(CNc2c(N3CCCCC3)c(=O)c2=O)CC1)N1CCCCC1` (stereo not shown) to `O=C(O)C1C2C=CC(C2)C1C(=O)N1CCOCC1` (stereo not shown), the “hERG current change (%, negative = inhibition) at 10uM” value falls from 10.2% to -0.616%.

First: COc1ccccc1NS(=O)(=O)c1cc(NC(=O)CCC(=O)c2cccs2)ccc1Cl
Second: CC(=O)Nc1ccc(NC(=O)CN(C)S(=O)(=O)c2ccc3nc(C)sc3c2)cc1
The “hERG current change (%, negative = inhibition) at 10uM” value of the first is lower: -13.6% for the first, 25.7% for the second.

Compared with `CS(=O)(=O)c1ccccc1-c1nnc(NC(=O)C2=COCCO2)o1`, `COC(=O)C1C/C(=N\NS(=O)(=O)c2ccc(C)cc2)c2ccccc2C1` (stereo not shown) is lower in “hERG current change (%, negative = inhibition) at 10uM” value: 4.66% for the first, -10.6% for the second.

Compared with `CCNc1nc(NCC)nc(Nn2cnnc2)n1`, `CCCC(=O)Nc1c2c(nn1-c1ccccc1)CSC2` is higher in “hERG current change (%, negative = inhibition) at 10uM” value: -0.371% for the first, 1.81% for the second.

Compared with `Cc1ccc(N/C=C(\C#N)S(=O)(=O)c2ccccc2)cc1`, `Cc1ccc(Sc2nnc(-c3ccccc3)cc2C#N)cc1` is lower in “hERG current change (%, negative = inhibition) at 10uM” value: 14.3% for the first, 4.01% for the second.

First: CCOc1ccccc1OCC(=O)O
Second: CCOC(=O)C(NC(=O)CC)(Nc1ccccc1)C(F)(F)F (stereo not shown)
The “hERG current change (%, negative = inhibition) at 10uM” value of the first is lower: 13.2% for the first, 21.9% for the second.

Compared with `CCCCNCCCOc1cccc(Cl)c1`, `CCCOc1ccc(N2C(=O)CC(NCCNc3ccc([N+](=O)[O-])cn3)C2=O)cc1` (stereo not shown) is lower in “hERG current change (%, negative = inhibition) at 10uM” value: -2.83% for the first, -72.5% for the second.

First: COc1ccccc1-n1cnc2sc(C)c(C)c2c1=O
Second: COc1cc(NC(=O)c2ccccc2)c(OC)cc1NC(=O)CN1CCN(c2ccccn2)CC1
The “hERG current change (%, negative = inhibition) at 10uM” value of the first is higher: 5.71% for the first, -28.3% for the second.

Compared with `CN1CCc2c(sc3nc(SCC(=O)N4CCOCC4)nc(N)c23)C1`, `CCOC(=O)CCCSc1nc2sc3c(c2c(=O)[nH]1)CCC3` is higher in “hERG current change (%, negative = inhibition) at 10uM” value: 1.89% for the first, 14.4% for the second.

Going from `Cc1ccc2[nH]c(=O)c(CN(Cc3ccc4c(c3)OCO4)Cc3nnnn3C3CCCC3)cc2c1` to `O=C(c1ccco1)N1CCCC(c2nc3c(nnn3Cc3c(Cl)cccc3Cl)c(=O)[nH]2)C1` (stereo not shown), the “hERG current change (%, negative = inhibition) at 10uM” value falls from 4.66% to -40.2%.

Compared with `CC12CCC(c3n[nH]c(=S)nc31)C2(C)C` (stereo not shown), `CN1C(=S)SC(/[N+]([O-])=C\c2ccco2)C1(C)C` (stereo not shown) is lower in “hERG current change (%, negative = inhibition) at 10uM” value: 18.7% for the first, 8.23% for the second.

Going from `CCCOc1ccc(N2C(=O)CC(SC(=N)N3N=C(c4ccccc4)CC3c3ccccc3)C2=O)cc1` (stereo not shown) to `Cl.c1ccc(COc2ccc(CNCc3cccs3)cc2)cc1`, the “hERG current change (%, negative = inhibition) at 10uM” value falls from 16.6% to -12.7%.

Going from `Cc1c(Br)c([N+](=O)[O-])nn1CC(=O)Nc1ccc2nc3n(c(=O)c2c1)CCCC3` to `Cc1ccc(SCCNC(=O)/C=C/c2cccc([N+](=O)[O-])c2)cc1`, the “hERG current change (%, negative = inhibition) at 10uM” value falls from 0.566% to -31.6%.

Going from `Cc1ccccc1CN1CCN(C2CCC2)CC1CCO` (stereo not shown) to `Cn1c(Cn2c(=O)sc3ccccc32)nnc1SCC(=O)N1CCN(c2ccccc2)CC1`, the “hERG current change (%, negative = inhibition) at 10uM” value falls from 9.75% to -49.5%.

First: Oc1ccc(/C=N/N2CCOCC2)c(O)c1O
Second: Cc1ccc(NC(=O)C(c2ccccc2)N(C)C)cc1Cl (stereo not shown)
The “hERG current change (%, negative = inhibition) at 10uM” value of the first is higher: 50.5% for the first, -19.5% for the second.
